In all, about 310,000 compounds went through this assay and about 2,200 (0.71%) showed an effect of 50% or more. The effect is printed as a negative number. Some of the results follow.
Target: human ether-à-go-go-related gene (hERG) potassium channel (human, UniProt Q12809)
Test: primary screen, population patch clamp on CHO cells stably expressing hERG

human ether-à-go-go-related gene (hERG) potassium channel, sequence (Q12809 whole entry, looked up): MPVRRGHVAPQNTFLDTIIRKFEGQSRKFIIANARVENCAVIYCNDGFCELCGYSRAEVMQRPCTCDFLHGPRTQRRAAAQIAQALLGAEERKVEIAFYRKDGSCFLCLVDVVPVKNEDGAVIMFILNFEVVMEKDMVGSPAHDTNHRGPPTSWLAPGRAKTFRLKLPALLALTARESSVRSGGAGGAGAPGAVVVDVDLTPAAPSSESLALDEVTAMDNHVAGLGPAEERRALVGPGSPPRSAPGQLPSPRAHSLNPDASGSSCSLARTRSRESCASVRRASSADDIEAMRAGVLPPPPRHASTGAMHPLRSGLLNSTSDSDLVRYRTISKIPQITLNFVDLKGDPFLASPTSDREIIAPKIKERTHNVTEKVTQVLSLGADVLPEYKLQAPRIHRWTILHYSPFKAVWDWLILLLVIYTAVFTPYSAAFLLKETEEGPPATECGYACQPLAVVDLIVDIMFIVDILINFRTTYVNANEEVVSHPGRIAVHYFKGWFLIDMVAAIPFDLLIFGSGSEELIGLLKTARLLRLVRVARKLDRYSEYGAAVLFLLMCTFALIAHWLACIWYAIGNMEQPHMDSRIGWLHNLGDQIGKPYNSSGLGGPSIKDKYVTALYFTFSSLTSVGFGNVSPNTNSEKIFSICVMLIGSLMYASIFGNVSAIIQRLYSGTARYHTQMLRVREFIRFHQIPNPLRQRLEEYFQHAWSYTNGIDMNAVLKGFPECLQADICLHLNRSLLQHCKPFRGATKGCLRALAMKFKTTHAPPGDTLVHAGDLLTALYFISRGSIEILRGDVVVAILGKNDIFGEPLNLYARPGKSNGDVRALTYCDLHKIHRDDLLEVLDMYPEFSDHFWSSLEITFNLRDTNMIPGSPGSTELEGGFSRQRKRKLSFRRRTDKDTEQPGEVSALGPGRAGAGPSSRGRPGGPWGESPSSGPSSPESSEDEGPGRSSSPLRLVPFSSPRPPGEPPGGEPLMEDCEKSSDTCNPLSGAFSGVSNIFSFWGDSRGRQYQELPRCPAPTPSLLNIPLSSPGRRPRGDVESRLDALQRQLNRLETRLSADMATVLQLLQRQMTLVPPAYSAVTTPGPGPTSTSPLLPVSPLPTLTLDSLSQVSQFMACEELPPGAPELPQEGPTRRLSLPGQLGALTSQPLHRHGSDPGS

Compared with `CN(CCC#N)C(=O)CSc1nc2scc(-c3ccccc3)c2c(=O)[nH]1`, `CCCCN(C(=O)c1cc(-c2ccco2)nc2ccccc12)c1c(N)n(CCC)c(=O)[nH]c1=O` is higher in “hERG current change (%, negative = inhibition) at 1uM” value: 0.162% for the first, 3.96% for the second.

Compared with `Cc1cc(NC(=O)c2c(C)noc2C)no1`, `CCn1ncc([N+](=O)[O-])c1C(=O)Nc1cc(C)on1` is lower in “hERG current change (%, negative = inhibition) at 1uM” value: 14.5% for the first, 5.38% for the second.

Going from `COC(=O)c1c(NC(C)=O)sc(C(=O)N2CCOCC2)c1C` to `COC(=O)CCCC(=O)N1CCOCCN(C(=O)CCCC(=O)OC)CCOCC1`, the “hERG current change (%, negative = inhibition) at 1uM” value falls from 15.4% to 5.72%.

Going from `COc1cccc(C(=O)NC(=S)Nc2ccccc2N2CCCCC2)c1` to `COc1ccc(CCNC(=S)Nc2cccc3ccccc23)cc1`, the “hERG current change (%, negative = inhibition) at 1uM” value falls from 19.2% to 10.6%.

First: Cn1c(=O)c2c(SCC(=O)NCc3ccco3)nc(CC(C)(C)C)nc2n(C)c1=O
Second: Cc1ccc(-n2c(=O)c3sccc3n(CC(=O)NCc3ccco3)c2=O)cc1F
The “hERG current change (%, negative = inhibition) at 1uM” value of the first is lower: -25.3% for the first, 16.4% for the second.

Going from `CCOC(=O)CC(=O)CSc1nc(N)c(C#N)c(-c2ccc(Cl)cc2)c1C#N` to `N#Cc1c(N)n(CCOC(=O)c2cccc(Br)c2)c2nc3ccccc3nc12`, the “hERG current change (%, negative = inhibition) at 1uM” value falls from 11.8% to 7.94%.

Going from `O=C(CSc1nncn1-c1ccccc1)Nc1c(F)cccc1F` to `COCCn1cnnc1SCC(=O)Nc1ccc(N2CCCCC2)cc1`, the “hERG current change (%, negative = inhibition) at 1uM” value falls from 3.79% to 0.874%.

First: CSc1ncnc2sc(C)c(C)c12
Second: Cc1cccc(OCC(=O)Nc2nnc(-c3ccco3)s2)c1
The “hERG current change (%, negative = inhibition) at 1uM” value of the first is higher: 13.4% for the first, -1.59% for the second.

Going from `O=C(O)c1[nH]c2ccccc2c1C(c1cc(Br)ccc1O)c1c(C(=O)O)[nH]c2ccccc12` to `O=c1[nH]c(N/N=C\c2ccc(F)cc2)nc2ccccc12`, the “hERG current change (%, negative = inhibition) at 1uM” value falls from 15.8% to 3.46%.

Compared with `Cc1ccc(C)c(S(=O)(=O)Nc2ccc(C(=O)NCC(c3ccco3)N(C)C)cc2)c1` (stereo not shown), `Cc1ccc(NC(=O)c2cccs2)cc1NC(=O)c1ccc(F)cc1` is higher in “hERG current change (%, negative = inhibition) at 1uM” value: 1.68% for the first, 3.68% for the second.

First: Cc1ccc(NC(=O)CCNS(=O)(=O)c2cc(Br)cnc2N)c(Cl)c1
Second: O=C(Nn1cnnc1)c1cc(Br)ccc1Cl
The “hERG current change (%, negative = inhibition) at 1uM” value of the first is lower: 1.87% for the first, 12.2% for the second.

Compared with `S=C(NCCCCc1ccccc1)NCc1ccccc1`, `O=C(NCCCc1ccccc1)c1ccc(Br)o1` is lower in “hERG current change (%, negative = inhibition) at 1uM” value: 16% for the first, -5.61% for the second.

Compared with `O=C(CC(=O)N/N=C\c1cccc(Cl)c1Cl)NCc1ccccc1`, `NC(=O)c1ccccc1NC(=O)Nc1ccccc1Cl` is higher in “hERG current change (%, negative = inhibition) at 1uM” value: 14.7% for the first, 15.5% for the second.

First: O=C(O)CC(C(=O)Nc1cccc(C(F)(F)F)c1)C1CCCO1 (stereo not shown)
Second: NC(=O)c1nsc(C(=O)N(CC(=O)NC2CCCCC2)c2cccc(F)c2)c1N
The “hERG current change (%, negative = inhibition) at 1uM” value of the first is lower: 6.05% for the first, 9.26% for the second.

First: Cc1ccccc1CNC(=O)C1CCC(=O)N(Cc2cccc(F)c2)C1 (stereo not shown)
Second: CCC(C(=O)NCCc1ccco1)n1nc(C)c2c(C)n(-c3ccccc3)nc2c1=O (stereo not shown)
The “hERG current change (%, negative = inhibition) at 1uM” value of the first is higher: 18.6% for the first, 9.12% for the second.

Compared with `Cc1[nH]oc(=O)c1N=Nc1ccccc1`, `CC(C)COn1c(=S)[nH]c2ccccc2c1=O` is lower in “hERG current change (%, negative = inhibition) at 1uM” value: 5.01% for the first, -3.51% for the second.

First: Cc1cc(C)n(-c2nncn2NC(=O)c2ccc(Cl)cc2O)n1
Second: CC(=O)Nc1nnc(-c2c(-c3c(Cl)cccc3Cl)noc2C)o1
The “hERG current change (%, negative = inhibition) at 1uM” value of the first is higher: 11% for the first, -0.125% for the second.

Going from `Cc1ccc(CSc2nnc(-c3ccco3)n2N)cc1` to `CCc1nnc2sc(-c3ccc(NC(=O)c4ccco4)cc3)nn12`, the “hERG current change (%, negative = inhibition) at 1uM” value rises from 11.2% to 11.5%.

Compared with `CCOc1ccc(S(=O)(=O)Nc2cccc(C(=O)N3CCN(C(C)=O)CC3)c2)cc1`, `CCc1ccc(S(=O)(=O)N2CCN(C(=O)C3CCN(C(C)=O)CC3)CC2)cc1` is higher in “hERG current change (%, negative = inhibition) at 1uM” value: -15.3% for the first, 10.2% for the second.

First: Cc1ccc(C)n1-c1ccc(C(=O)O)cc1
Second: CC(CNC(=O)c1ccc2c(c1)OCO2)c1ccc([N+](=O)[O-])cc1 (stereo not shown)
The “hERG current change (%, negative = inhibition) at 1uM” value of the first is higher: 21.3% for the first, 12.7% for the second.

Compared with `COc1cccc(OCCOc2ccc(/C=C3\C(=N)N4N=C(S(C)(=O)=O)SC4=NC3=O)cc2OC)c1`, `COCC(=O)N(Cc1cc2cc(OC)ccc2[nH]c1=O)c1ccccc1OC` is lower in “hERG current change (%, negative = inhibition) at 1uM” value: 17.2% for the first, 0.229% for the second.

First: O=C1CC(=O)N(c2ccc3c(c2)OCO3)C(=O)N1
Second: O=c1[nH]c(Cl)ccc1CN1CCOCC1
The “hERG current change (%, negative = inhibition) at 1uM” value of the first is lower: 6.07% for the first, 10.1% for the second.

First: CCCS(=O)(=O)N1CCCC(C(=O)NCCN2CCOCC2)C1 (stereo not shown)
Second: CCN1CCN(S(=O)(=O)c2cccc([N+](=O)[O-])c2)CC1
The “hERG current change (%, negative = inhibition) at 1uM” value of the first is lower: 5.53% for the first, 17.2% for the second.

First: O=[N+]([O-])C(/C=C(\Cl)[N+](=O)[O-])=C(N1CCCCC1)N1CCCCC1
Second: Cc1ccn2c(CNC(C)c3cn(C)nc3C)c(C(=O)N3CCCCCC3)nc2c1 (stereo not shown)
The “hERG current change (%, negative = inhibition) at 1uM” value of the first is lower: -0.394% for the first, 16.9% for the second.

Compared with `CCN(CC)CCN(C(=O)C1=COCCO1)c1nc2c(OC)ccc(OC)c2s1.Cl`, `Cc1ccc2cc(C=O)c(N(C)C)nc2c1` is higher in “hERG current change (%, negative = inhibition) at 1uM” value: -84.9% for the first, 11.9% for the second.

Compared with `OC(COc1ccc2cc(Br)ccc2c1)CN1CCCC1` (stereo not shown), `Cn1c(Cn2nnc3ccccc32)nnc1SCC(=O)N1CCc2ccccc21` is higher in “hERG current change (%, negative = inhibition) at 1uM” value: -12.9% for the first, 2.05% for the second.

Going from `CNC(=S)Nc1ccc2nc(C)oc2c1` to `CCNc1nc(=S)nc(NCc2ccccc2)[nH]1`, the “hERG current change (%, negative = inhibition) at 1uM” value falls from 6.89% to 5.53%.

Compared with `[O-]/C(=C(\C(=S)NCc1ccccc1)[n+]1ccccc1)c1ccc(Cl)s1`, `Cc1c(NS(=O)(=O)c2cccs2)cccc1-c1nc2cccnc2s1` is higher in “hERG current change (%, negative = inhibition) at 1uM” value: 0.527% for the first, 7.99% for the second.

First: Cc1nc(-c2ccc(Cl)cc2)sc1C1(C)CC(c2ccc(OC(F)(F)F)cc2)=NO1 (stereo not shown)
Second: Cn1ncc([N+](=O)[O-])c1C(=O)Nc1ccc(-c2nc3ccccc3[nH]2)cc1
The “hERG current change (%, negative = inhibition) at 1uM” value of the first is higher: 15.6% for the first, 4.05% for the second.

From paper PMC4336329 (PLoS ONE, 2015)
